# Experimental data published in PubChem BioAssay AID1346428 (National Center for Advancing Translational Sciences (NCATS), 2018).
# The campaign covered roughly 48,000 compounds. About 1,200 (2.5%) were called active. The inconclusive results got no clear call from the source; some entries with a clear call stand among them for comparison.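 Rule for the calls: active = activation of at least 60% and not above a set upper limit (about 1 call in 100 departs from these limits); inconclusive = activation of 40% to 60%, or above that upper limit; inactive = activation under 40%.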
# Target: Probable G-protein coupled receptor 32 (Homo sapiens) (UniProt O75388)
# Test: qHTS for Agonists of Human Resolvin D1 Receptor DRV1; note: 0% is about no effect
# Conditions: CHO-K1 GPR32 beta-arrestin PathHunter luminescence, 90 min; at 76.9 µM; active compounds read high; zero percent set by DMSO-only wells
# In short: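 Readings come from a cell-based beta-arrestin complementation format: CHO-K1 GPR32 stable cells (2,500/well) treated 90 min with compounds, then beta-Gal substrate added for 1 h before chemiluminescence imaging.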
# UniProt O75388, sequence (O75388 whole entry, looked up): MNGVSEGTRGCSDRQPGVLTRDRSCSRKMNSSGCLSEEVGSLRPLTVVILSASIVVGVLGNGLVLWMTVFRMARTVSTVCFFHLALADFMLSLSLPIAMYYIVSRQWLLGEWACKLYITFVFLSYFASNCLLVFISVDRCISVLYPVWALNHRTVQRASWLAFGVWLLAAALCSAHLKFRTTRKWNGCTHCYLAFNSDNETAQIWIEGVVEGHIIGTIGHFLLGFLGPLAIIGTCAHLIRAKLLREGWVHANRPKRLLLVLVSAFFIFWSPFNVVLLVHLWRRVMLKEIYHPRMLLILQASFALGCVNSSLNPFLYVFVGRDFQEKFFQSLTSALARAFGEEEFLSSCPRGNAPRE
row,SMILES,activation
1,Fc1ccc(-c2cc(C(F)(F)F)nc(NCc3ccccc3)n2)cc1,inconclusive: 58.2%
2,O=C(CSc1nc2c([nH]c3ccccc32)c(=O)n1-c1ccc(F)cc1)NCc1ccco1,inconclusive: 56.5%
3,Cc1ccc(OCC(=O)Nc2ccc3nc(SCC(N)=O)sc3c2)cc1,inconclusive: 59.1%
4,Cc1ccc(NC(=O)C2CCCN(S(=O)(=O)c3c(C)n[nH]c3C)C2)cc1Cl (stereo not drawn),inactive: 41.1%
5,Cc1cccc(OCC(=O)Nc2ccc3oc(-c4ccccc4F)nc3c2)c1,active: 121%
6,COc1ccc(NC(=O)c2c(NCc3cccs3)sc3c2CCCC3)cc1,inactive: 0.974%
7,Oc1c(Br)cc(Br)c2cccnc12,inconclusive: 270%
8,COc1cccc(C(=O)NCCc2csc(-c3cccc(F)c3)n2)c1OC,inconclusive: 137%
9,CC(C)C[C@H](NC(=O)[C@H](Cc1ccccc1)NC(=O)c1cnccn1)B(O)O,inconclusive: 51%
10,Cc1ccc(C(=O)Nc2ccc(Br)cc2)cc1S(=O)(=O)NCc1ccccc1,inconclusive: 55.2%
11,Cc1ccc(OCC(=O)Nc2ccc3[nH]c(=O)sc3c2)cc1,inconclusive: 53.5%
12,Cc1ccc(NC(=O)CC(C)S(=O)(=O)c2ccc3c(c2)NC(=O)CO3)cc1Cl (stereo not drawn),inconclusive: 178%
13,COc1cc(NS(=O)(=O)c2ccc3[nH]c4c(c3c2)CCCCCC4)cc(OC)c1,active: 102%
14,Cc1ccc(NS(=O)(=O)c2ccc3nc(-c4ccccc4)[nH]c3c2)c(Cl)c1,active: 104%
15,CCn1c(=O)cc(SCC(=O)NCCc2ccc(Cl)cc2)c2ccccc21,inconclusive: 148%
16,COc1ccc(OC)c(CCNc2ncnc3onc(-c4ccc(F)cc4)c23)c1,inactive: -1.56%
17,COc1ccc(-c2onc(C)c2C)cc1S(=O)(=O)N1c2ccccc2CC1C (stereo not drawn),inactive: -13%
18,COc1ccccc1C(=O)Nc1cc2c(cc1N1CCOCC1)n(C)c(=O)n2C,inactive: -5.24%
19,Cc1noc(C)c1S(=O)(=O)N1CCC(C(=O)N2CCN(c3ccccc3)CC2)CC1,inactive: 17.8%
20,O=C(c1ccc(F)cc1)N1c2nc(-c3ccco3)nn2C2(CCCCC2)[C@@H]2CCCC[C@@H]21,inactive: -35.4%
21,COc1ccc2c(c1)CCc1c(C(=O)Nc3c(C)nn(Cc4ccc(Cl)cc4)c3C)noc1-2,inactive: 5.75%
22,Cc1c(Cl)cccc1NC(=O)CSc1ncc(S(=O)(=O)c2ccc(C(C)C)cc2)c(=O)[nH]1,inconclusive: 145%
23,Cc1cccc(NS(=O)(=O)c2ccc(Cl)c(C(=O)Nc3ccccc3C)c2)c1,inconclusive: 155%
